Laboratory results: PubChem BioAssay AID360 (National Center for Advancing Translational Sciences (NCATS), 2006)
Hit rate of the full screen: of about 48,000 compounds, about 550 (1.1%) were called active. Roughly 4% stayed inconclusive and do not appear here. No stated cut-off is given here; in the data, active means potency below about 15 µM; inconclusive means mostly about 16 µM to 33 µM; inactive means weaker than that. This is one part of the list.

biological target: Lysosomal acid glucosylceramidase (Homo sapiens) (UniProt P04062); test: Glucocerebrosidase; conditions: purified enzyme, resorufin glucoside fluorescence (screen aimed at inhibitors), 20 min;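 further: the screen sought inhibitors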
Method in brief: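 Compounds titrated against 0.2 nM normal enzyme, 30 uM resorufin beta-D-glucopyranoside substrate, citrate/phosphate buffer with taurocholate and tween-20, pH 5.9. Reaction ran 20 min at room temperature; fluorescence (Ex 548/Em 600) gave AC50.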
Potency means the concentration at half of the fitted maximal effect.

UniProt P04062, sequence (P04062 whole entry, looked up): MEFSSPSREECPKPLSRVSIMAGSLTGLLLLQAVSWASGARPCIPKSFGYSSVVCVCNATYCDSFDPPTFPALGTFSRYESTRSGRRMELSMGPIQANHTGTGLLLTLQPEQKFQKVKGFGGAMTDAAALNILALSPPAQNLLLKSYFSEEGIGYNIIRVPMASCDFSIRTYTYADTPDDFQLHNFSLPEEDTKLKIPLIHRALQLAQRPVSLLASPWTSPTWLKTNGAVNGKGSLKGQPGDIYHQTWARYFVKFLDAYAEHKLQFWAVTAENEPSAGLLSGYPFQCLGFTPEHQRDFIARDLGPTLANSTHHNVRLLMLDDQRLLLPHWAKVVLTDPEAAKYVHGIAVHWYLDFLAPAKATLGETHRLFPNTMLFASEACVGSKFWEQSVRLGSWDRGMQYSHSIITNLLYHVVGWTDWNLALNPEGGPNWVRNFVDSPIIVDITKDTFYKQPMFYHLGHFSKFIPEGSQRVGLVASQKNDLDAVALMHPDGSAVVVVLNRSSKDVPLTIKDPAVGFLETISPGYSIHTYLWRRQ

Potency, inactive:
COc1ccc(N2CCN(S(=O)(=O)c3cccs3)CC2)cc1 > 76.9 µM
COCCSc1nnc(NC(=O)Cc2ccccc2OC)s1 > 76.9 µM
CCC(=O)c1ccc(OCC(=O)Nc2nn3cnnc3s2)cc1
O=C(OCCN(CCOC(=O)c1ccncc1)S(=O)(=O)c1cccs1)c1ccncc1 > 76.9 µM
CCOc1ccc(NC(=O)c2cccnc2C(=O)O)cc1 > 76.9 µM
O=C1OCC2=C1C(c1ccc3c(c1)OCO3)Sc1ccccc1N2 (configuration not stated)
COCCn1c(=NC(=O)CSCC(=O)NC2CCCCC2)sc2cc(OC)ccc21 > 76.9 µM
O=C(C1CCN(S(=O)(=O)Cc2ccccc2)CC1)N1CCCc2ccccc21 > 76.9 µM
CCOc1cc(C(=O)NCCOC)ccc1OC > 76.9 µM
COc1ccc(Cc2nnc(NS(=O)(=O)Cc3ccccc3)s2)cc1 > 76.9 µM
Cc1ccc2nc(NC3=NCN(Cc4ccccc4)CN3)nc(C)c2c1 > 76.9 µM
Cc1sc2nc(SCC(=O)NCc3cccs3)[nH]c(=O)c2c1C > 76.9 µM
CCOC(=O)c1sc(NC(=O)CSc2nnc(-c3ccc(OC)cc3)n2CCOC)nc1C > 76.9 µM
COC(=O)c1c(N)c(C#N)c2n1CCCCC2 > 76.9 µM
O=C(NCC1CCCO1)c1c(O)c2c([nH]c1=O)CCCC2 (configuration not stated) > 76.9 µM
Fc1cc2ncn(Cc3ccccc3)c2cc1F > 76.9 µM
O=C(CSc1nnnn1-c1ccccc1)Nc1nsc(-c2ccccc2)n1 > 76.9 µM
CCCc1cc2c(=O)c(-c3ccccn3)coc2cc1OC > 76.9 µM
COc1ccc(OC)c(C2=NOC(C(=O)Nc3cccnc3)C2)c1 (configuration not stated) > 76.9 µM
CCNC(=O)CN(c1ccc(C)cc1)S(=O)(=O)c1ccc(SC)cc1 > 76.9 µM
COc1ccc(-c2noc(CCC(=O)NCc3cccnc3)n2)cc1OC > 76.9 µM
O=C(CSc1nc2c(c(=O)[nH]1)CCCC2)Nc1ccc(Cl)cc1F > 76.9 µM
COCCCNC(=O)c1cc2c(s1)CS(=O)(=O)C2 > 76.9 µM
O=S(=O)(NCC1CCCO1)c1cccc(C(F)(F)F)c1 (configuration not stated) > 76.9 µM
N#Cc1ccccc1OCCN1C(=O)c2ccccc2C1=O > 76.9 µM
O=C(NO)c1ccc(OC(F)F)cc1 > 76.9 µM
CCOC(=O)C1=C(C)N=C(/N=C/N(C)C)SC1c1ccccc1 (configuration not stated) > 76.9 µM
Cc1cnc(NC(=O)CSc2nnc(-c3ccccc3)o2)s1 > 76.9 µM
C=CCN(c1ccc(C(=O)N2CCN(c3ccc(F)cc3)CC2)cc1)S(C)(=O)=O > 76.9 µM
Cc1[nH]c2ccccc2c1CCO > 76.9 µM
O=C(c1ccccc1)c1ccc(N2CCOCC2)c(NC(=O)c2ccco2)c1 > 76.9 µM
CC(C)C(NS(=O)(=O)c1cccc2nsnc12)C(=O)N1CCc2ccccc2C1 (configuration not stated) > 76.9 µM
COc1cc(C(=O)Nc2cccc3ncccc23)cc(OC)c1OC > 76.9 µM
CCCc1nc2oc3c(NCC4CCCO4)ncnc3c2c2c1COC(C)(C)C2 (configuration not stated) > 76.9 µM
Cc1c(NC(=O)C(C)N2CC(C)OC(C)C2)c(=O)n(-c2ccccc2)n1C (configuration not stated) > 76.9 µM
O=C(CC1CCCCC1)NC1CCCC1 > 76.9 µM
CCOc1ccc(-c2nnn(CC(=O)Nc3ccccc3OC)n2)cc1OCC > 76.9 µM
Cn1c(=O)cc(OCC(=O)NC2CCCCC2)c2ccccc21 > 76.9 µM
O=C(Nc1ncccn1)c1cccs1 > 76.9 µM
CCN(C(=O)c1cc2cccc(OC)c2oc1=O)c1ccccc1 > 76.9 µM
Cc1ccc(Cn2c(=O)c3c(nc4n3CCCN4Cc3ccccc3)n(C)c2=O)cc1 > 76.9 µM
O=C(Nc1cc(C(F)(F)F)ccc1F)C1CCC1 > 76.9 µM
CCc1nc(N(CC)CC)c2oc3ccccc3c2n1 > 76.9 µM
Cc1cc(Cl)c(S(=O)(=O)N2CC(C)OC(C)C2)cc1OCC(N)=O (configuration not stated) > 76.9 µM
C/C(=C\c1cc(C(=O)O)c(C)o1)CO > 76.9 µM
Nc1c(S(=O)(=O)c2ccccc2)nnn1-c1ccccc1 > 76.9 µM
Cc1ncsc1C(=O)Nc1nc2c(s1)CCCC2 > 76.9 µM
CCOC(=O)CN1C(=O)C2(OCCCO2)c2ccccc21 > 76.9 µM
CCN(CC)C(C(=O)Nc1ccc2c(c1)OCO2)c1ccccc1 (configuration not stated) > 76.9 µM
CCOC(=O)N1CCN(C(=O)c2ccc(N3C(=O)c4ccccc4C3=O)cc2)CC1 > 76.9 µM
Cc1cc(C)c2c(CN3CCN(C)CC3)cc(=O)oc2c1
CCOCCCNC(=O)C(NC(=O)c1ccc2c(c1)OCO2)c1ccc(OC)cc1 (configuration not stated) > 76.9 µM
O=C(NC1CCCCC1)C(c1ccccc1)N1CCOCC1 (configuration not stated) > 76.9 µM
CCCCn1c(NC(C)CC)nc2c1c(=O)[nH]c(=O)n2C (configuration not stated) > 76.9 µM
CC(=O)Nc1cccc(NC(=O)c2cc3ccccc3o2)c1 > 76.9 µM
COC(=O)c1ccc(COC(=O)c2[nH]c(C)c(C(C)=O)c2C)o1 > 76.9 µM
COc1ccccc1NC(=O)N1CCCC1C(=O)Nc1ccc(NC(C)=O)cc1 (configuration not stated) > 76.9 µM
COc1ccc(CCNc2oc(-c3ccco3)nc2C#N)cc1 > 76.9 µM
O=C(NCc1ccccn1)c1ccc(Cl)cc1Cl > 76.9 µM
S=c1[nH]nc(-c2cccc(Br)c2)o1 > 76.9 µM
OCCNCC(O)Cn1ccc2ccccc21 (configuration not stated) > 76.9 µM
O=C(CSc1ncnc2nc[nH]c12)N1CCN(c2ccccc2)CC1 > 76.9 µM
